Assay results: PubChem BioAssay AID588591 (National Center for Advancing Translational Sciences (NCATS), 2011)
Screen size: about 390,000 compounds; about 4,700 (1.2%) were called active. Inconclusive results, whose numbers are uncertain, are shown with a selection of clear calls. Calls follow the shape of the dose curve; as a rule, active = well fitted inhibition curve with a large enough effect; inconclusive = small, poorly fitted or top-dose-only effect, or another doubt; inactive = no such curve, though single readings can be large or run the other way. Potencies beside an inconclusive call are fits to weak or partial responses and may not hold up.

What follows are compounds tested against DNA polymerase eta (Homo sapiens) (UniProt Q9Y253) (assay: qHTS for Inhibitors of Polymerase Eta). Details: recombinant Pol eta, fluorescent DNA replication assay; series mostly up to 114 µM; activity change, negative = inhibition: at the top concentration.
How it was run: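 Pol eta at 10 nM preincubated with compounds 15 min at room temperature; reaction started with fluorescent substrate (50 nM final) and read kinetically at 0 and 10 min.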
% is scaled to controls: 0 for no effect and ±100 for the full control effect; potency is read from the fitted curve at half-maximal effect; tags tell the direction and shape of the fitted curve.

UniProt Q9Y253, sequence (Q9Y253 whole entry, looked up): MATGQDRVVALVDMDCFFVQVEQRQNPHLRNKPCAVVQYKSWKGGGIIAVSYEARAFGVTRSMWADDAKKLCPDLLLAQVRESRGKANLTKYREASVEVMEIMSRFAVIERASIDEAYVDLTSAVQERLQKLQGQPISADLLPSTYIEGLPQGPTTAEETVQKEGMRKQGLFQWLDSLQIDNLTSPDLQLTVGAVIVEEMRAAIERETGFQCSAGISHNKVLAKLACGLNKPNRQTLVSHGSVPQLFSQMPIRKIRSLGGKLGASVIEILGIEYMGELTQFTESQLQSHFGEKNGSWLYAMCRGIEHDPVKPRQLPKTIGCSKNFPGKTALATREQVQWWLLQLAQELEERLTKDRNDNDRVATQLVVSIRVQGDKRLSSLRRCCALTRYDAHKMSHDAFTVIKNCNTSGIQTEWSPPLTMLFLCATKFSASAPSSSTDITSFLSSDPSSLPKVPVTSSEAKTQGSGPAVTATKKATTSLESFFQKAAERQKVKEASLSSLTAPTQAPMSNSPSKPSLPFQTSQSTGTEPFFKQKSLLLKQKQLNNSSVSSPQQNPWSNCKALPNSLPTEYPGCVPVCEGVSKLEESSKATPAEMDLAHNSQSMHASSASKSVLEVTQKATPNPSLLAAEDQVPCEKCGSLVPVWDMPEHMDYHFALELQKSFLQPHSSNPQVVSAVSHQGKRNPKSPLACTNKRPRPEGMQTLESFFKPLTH

Row | SMILES | Potency | activity change, negative = inhibition
1 | O=C(O)COc1ccc(C=C2SC(=S)N(c3ccccc3)C2=O)cc1 | inconclusive: 22.4 µM [inhibitor, full curve, poor fit] | 
2 | CCN(CC)CCNC(=O)C(Cl)=C1C(Cl)=C(Cl)C(Cl)=C1Cl |  | inactive: -15.9%
3 | Cc1ccc(-c2[nH]c3cc(C(=O)NCCCn4ccnc4)ccc3c(=O)c2O)cc1 |  | inactive: -9.26%
4 | C#CC1(O)CCC2C3CCc4cc(O)cc(C)c4C3CCC21C (stereo not given) |  | inactive: -19.7%
5 | CCC(=O)c1ccc(OCC(O)CN(C)C2CCCCC2)cc1 (stereo not given) | inconclusive: 1.41 µM [inhibitor, full curve, poor fit] | 
6 | O=C(Nc1ccccc1C(=O)O)c1cccc(NC(=O)c2ccc(Br)o2)c1 | inconclusive: 25.1 µM [inhibitor, partial curve] | 
7 | O=[N+]([O-])c1cc(CN2CCCC2)c2cccnc2c1O | active: 3.16 µM | 
8 | COc1cc(/C=N/NC(=O)c2cc(C34CC5CC(CC(C5)C3)C4)[nH]n2)ccc1O | inconclusive: 22.4 µM [inhibitor, partial curve, poor fit] | 
9 | CCOc1ccccc1-n1cnc2cc(C(=O)NCc3ccco3)ccc21 | inconclusive: 22.4 µM [inhibitor, single point] | 
10 | COc1ccccc1CNC(=O)CCCc1nnc2n(CC(C)C)c(=O)c3sccc3n12 |  | inactive: -16.8%
11 | COc1ccccc1-c1cc2nc(C)c(CCC(=O)Nc3ccc(Br)c(C)c3)c(C)n2n1 |  | inactive: -16.1%
12 | Cc1oc2c(cc(NS(=O)(=O)c3ccc(Cl)cc3)c3ccccc32)c1C(=O)O | active: 50.1 µM | 
13 | Cc1ccc(C)n1Cc1ccc(C(=O)O)cc1 |  | inactive: -98.4%
14 | COC(=O)c1cc2c(C)c(C)c3ccccn3c-2c1C(=O)OC | inconclusive: 17.8 µM [inhibitor, full curve, poor fit] | 
15 | C=CCn1c(=NC(=O)c2sc3ccccc3c2Cl)sc2cc(S(N)(=O)=O)ccc21 | inconclusive: 14.1 µM [inhibitor, partial curve] | 
16 | CCOC(=O)c1[nH]c(C)c(C(=O)Nc2ccccc2F)c1C | active: 25.1 µM | 
17 | O=C(CSc1nnc(-c2ccccc2)c(-c2ccccc2)n1)NC1CCCCC1 |  | inactive: -1.47%
18 | O=C(CN1C(=O)/C(=C2/SC(=S)N(CCS(=O)(=O)O)C2=O)c2ccccc21)Nc1cccc(Br)c1 | inconclusive: 22.4 µM [inhibitor, partial curve, poor fit] | 
19 | Cc1ccc2nc(N3C(=O)C(O)=C(C(=O)c4ccco4)C3c3cccc(O)c3)sc2c1 (stereo not given) | active: 50.1 µM | 
20 | CC[C@H]1C(c2ccc(F)cc2)=NN(c2ccccc2)[C@@H]1CO |  | inactive: -16.8%
21 | O=C(O)C1Cc2ccccc2CN1C(=O)c1ccccc1Cl (stereo not given) | inconclusive: 22.4 µM [inhibitor, partial curve, poor fit] | 
22 | O=C/C(=C\Nc1ccccn1)c1nc2cc(Cl)ccc2o1 | inconclusive: 28.2 µM [inhibitor, single point] | 
23 | CSc1ccc(-c2ccco2)nn1 | inconclusive: 39.8 µM [inhibitor, partial curve, poor fit] | 

Row | SMILES | Potency | activity change, negative = inhibition
24 | COC(=O)c1ccccc1NC(=O)C1CCCO1 (stereo not given) | inconclusive: 28.2 µM [inhibitor, partial curve, poor fit] | 
25 | Cc1ccc(OCCOC(=O)Nc2ccccc2)cc1 | inconclusive: 89.1 µM [inhibitor, partial curve, poor fit] | 
26 | CCCCn1c(=O)[nH]c(=O)c2c1nc(-c1ccsc1)n2Cc1ccccc1 | inconclusive: 28.2 µM [inhibitor, partial curve, poor fit] | 
27 | O=C(CSc1nc2c(c(=O)[nH]1)CN(Cc1ccc3c(c1)OCO3)CC2)Nc1cccc(Cl)c1 | inconclusive: 100 µM [inhibitor, partial curve, poor fit] | 
28 | CCc1cccc(-n2nnc(-c3nc(-c4ccccc4Cl)no3)c2N)c1 |  | inactive: -12.1%
29 | CN(C)S(=O)(=O)c1ccc(C(=O)NN2C(=O)NC3(CCCCC3)C2=O)cc1 |  | inactive: -21.5%
30 | Cc1[nH][nH]c(=O)c1C(c1ccc(-c2cccc(C(=O)O)c2)o1)c1c(C)[nH][nH]c1=O | active: 12.6 µM | 
31 | CCOc1cc(C(=O)N/N=C/c2cn(-c3ccccc3)nc2-c2cc3ccccc3o2)cc(OCC)c1OCC |  | inactive: -12.3%
32 | O=C(Oc1ccc2cc(Br)ccc2c1)c1cccnc1 | inconclusive: 100 µM [inhibitor, partial curve, poor fit] | 
33 | Cc1cccc(C(=O)NC(=S)Nc2ccccc2C(F)(F)F)c1 |  | inactive: -17.1%
34 | CCOC(=O)Cc1c(C)c2ccc(N(CC)CC)cc2oc1=O | inconclusive: 56.2 µM [inhibitor, partial curve, poor fit] | 
35 | CCOC(=O)C(=O)Nc1ccc(S(=O)(=O)Nc2nccc(C)n2)cc1 | inconclusive: 39.8 µM [inhibitor, partial curve, poor fit] | 
36 | CCOc1ccc(-n2c(O)c(/C=N/Nc3nnc(C)c(=O)[nH]3)c3ccccc3c2=O)cc1 | inconclusive: 35.5 µM [inhibitor, partial curve] | 
37 | CCCC(NC(=O)Cc1c(C)c2cc3c(C)c(C)oc3c(C)c2oc1=O)C(=O)N[C@@H](Cc1ccccc1)C(=O)O (stereo not given in full) | inconclusive: 3.98 µM [inhibitor, full curve, poor fit] | 
38 | Cc1ccc(C(=O)OCC(=O)c2ccc(CC(=O)N3CCOCC3)s2)c(C)c1 | active: 15.8 µM | 
39 | CCOc1cc(/C=C(\C#N)C(=O)Nc2cccc(C(=O)O)c2)ccc1OCc1ccccc1Cl | active: 56.2 µM | 
40 | O=C(CCl)N1c2ccccc2Sc2ccc3ccccc3c21 | active: 14.1 µM | 
41 | O=C(CN1C(=O)C2CC=CCC2C1=O)Nc1cc(C(F)(F)F)ccc1N1CCCC1 (stereo not given) | inconclusive: 89.1 µM [inhibitor, partial curve, poor fit] | 
42 | O=C1NC(c2cccc(Br)c2)=N/C1=C\c1ccco1 |  | inactive: 3.87%
43 | Cc1cccc(C(=O)Nc2nnc(SCC(=O)NCc3ccco3)s2)c1 |  | inactive: -10%
44 | O=C1C2C(C(=O)N1/N=C/c1cc([N+](=O)[O-])c(O)cc1O)C1C=CC2C12CC2 (stereo not given) | active: 10 µM | 
45 | O=C(N/N=C/c1ccc([N+](=O)[O-])cc1)c1ccc2nc[nH]c2c1 | inconclusive: 39.8 µM [inhibitor, partial curve, poor fit] | 
